# Experimental data reported in the RNAGym collection of RNA variant scans (doi:10.1093/nar/gkz1192).
# Read counts are not given, so values of variants with three or more changes are uncertain.
# B1: CPEB3 Ribozyme (parent)
# chain: UAACAGGGGGCCACAGCAGAAGCGUUCACGUCGCAGCCCCUGUCAGAUUCUGGUGAAUCUGCGAAUUCUGCUGUAUAUCUC
# Variants of: B1
# Experiment: self-cleavage, relative activity (ratio to wild type); higher = more cleavage; in vitro, sequencing
# Summary of the method: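 For each CPEB3 ribozyme variant, relative activity is its cleaved/total read fraction divided by the unmutated ribozyme's. Barcoded error-prone PCR libraries were transcribed by T7 RNA polymerase (5 hours, 37°C) and held in DNase I for 15 min before an EDTA stop, with cleavage occurring throughout. Template-switching reverse transcription and Illumina sequencing were used to read the RNAs. A 5-read minimum applied, and results are the mean of three batches.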
row,Variant,self-cleavage
1,UAACAGGGGGCCACGGCAGAAGCGUUCACGUCGCAGCCCCUGUCAGAUUCCGGUGAAUCUGCGUAUUCCGCUGUAUAUCUC [A15G U51C A64U U69C],0.33
2,UAACAGGGGGCCACGGCAGAAGCGUUCACGUCGCAGCCCCUGCCAGAUUCUGGAGAAUCUGCGAAUUCUGCUGUAUAUCUC [A15G U43C U54A],0.56
3,UAACAGGGGGCCACGGCAGAAGCGUUCACGUCGCAGCCCCUGCCAGAUUCUGGCGAAUCUGCGAAUUCUGCUGUAUAUCUC [A15G U43C U54C],0.39
4,UAACAGGGGGCCACGGCAGAAGCGUUCACGUCGCAGCCCCUGUCAGAUUCCGGUGAAUCUGCGAACUCUGCUGUGUAUCUC [A15G U51C U66C A75G],0.18
5,UAACAGGGGGCCACGGCAGAAGCGUUCACGUCGCAGCCCCUGUCAGAUUCUGGAGUAUCUGCGAAUUCUGCUGUAUAUCUC [A15G U54A A56U],0.31
6,UAACAGGGGGCCACGGCAGAAGCGUUCACGUCGCAGCCCCUGCCAGAUCCUAGUGAAUCUGCGAAUUCUGCUGUAUAUCUC [A15G U43C U49C G52A],0.1
7,UAACAGGGGGCCACGGCAGAAGCGUUCACGUCGCAGCCCCUGUCAGAUUCGGGUGAAUCUGCGAACUCUGCCGUAUAUCUC [A15G U51G U66C U72C],0.49
8,UAACAGGGGGCCACGGCAGAAGCGUUCACGUCGCAGCCCCUGUCAGAAUCUGGUGAAUCUGCGAAUUCUGCUGUAAAUCUC [A15G U48A U76A],0.25
9,UAACAGGGGGCCACGGCAGAAGCGUUCACGUCGCAGCCCCUGUCAGAUUCUGGCGAAUCUGCGAACUCUGCUGCAUAUCUC [A15G U54C U66C U74C],0.28
10,UAACAGGGGGCCACGGCAGAAGCGUUCACGUCGCAGCCCCUGUCAGAUUCAGGUGGAUCUGCGAAUUCUGCUGUAUAUCUC [A15G U51A A56G],0.54
11,UAACAGGGGGCCACGGCAGAAGCGUUCACGUCGCAGCCCCUGUCAGACUCUGGUGAAUCUGCGAAACCUGCUGUAUAUCUC [A15G U48C U66A U67C],0.38
12,UAACAGGGGGCCACGGCAGAAGCGUUCACGUCGCAGCCCCUGCCAGAUUCUGGUGAAUCUGCGAACUCUGCUGUAUAUCUC [A15G U43C U66C],0.15
13,UAACAGGGGGCCACGGCAGAAGCGUUCACGUCGCAGCCCCUGUCAGACUCUGGUGAAUCUGCGAAUUGUGCUGAAUAUCUC [A15G U48C C68G U74A],0.13
14,UAACAGGGGGCCACGGCAGAAGCGUUCACGUCGCAGCCCCUGUCAGAUCCUGGUGAAUCCGCGAAUCCCGCUGUAAAUCUC [A15G U49C U60C U67C U69C U76A],0.2
15,UAACAGGGGGCCACGGCAGAAGCGUUCACGUCGCAGCCCCUGGCAGAUUCUGGUGAAUCUGUGAGUUCUGCUUUAUAUCUC [A15G U43G C62U A65G G73U],0.13
16,UAACAGGGGGCCACGGCAGAAGCGUUCACGUCGCAGCCCCUGUCAGACUCUGGUGAAUCUGCGAAUUCUGCAGUACAUCUC [A15G U48C U72A U76C],0.31
17,UAACAGGGGGCCACGGCAGAAGCGUUCACGUCGCAGCCCCUGUCAGACUCUGGUGUAUCUGCGAAUUCUGCUGUAUAUCUC [A15G U48C A56U],0.2

row,Variant,self-cleavage
1,UAACAGGGGGCCACGGCAGAAGCGUUCACGUCGCAGCCCCUGUCAGAUUCAGGUGAAUCUGCGAACUCUGCUGUAUAUCUC [A15G U51A U66C],0.27
2,UAACAGGGGGCCACGGCAGAAGCGUUCACGUCGCAGCCCCUGUCAGAUCCAGGUGAAUUUGCGAAUUCUGCCGUAUAUCUC [A15G U49C U51A C59U U72C],0.33
3,UAACAGGGGGCCACGGCAGAAGCGUUCACGUCGCAGCCCCUGUCAGAUUCUGGCGAAUCUGCGAAUUCUGCUGUAUUUCUC [A15G U54C A77U],0.72
4,UAACAGGGGGCCACGGCAGAAGCGUUCACGUCGCAGCCCCUGCCAGAUUCUGGCGAACCUGCGAAUUCUGCCGUAUAUCUC [A15G U43C U54C U58C U72C],0.21
5,UAACAGGGGGCCACGGCAGAAGCGUUCACGUCGCAGCCCCUGUCAGAUUCUGGCGAAUCUGCGAAUUCUGCCGUAUACCUC [A15G U54C U72C U78C],1.24
6,UAACAGGGGGCCACGGCAGAAGCGUUCACGUCGCAGCCCCUGUCAGAUUCUGGUGAACCCGCGAAUUCUGCUGGAUCUCUC [A15G U58C U60C U74G A77C],0.18
7,UAACAGGGGGCCACGGCAGAAGCGUUCACGUCGCAGCCCCUGUCAGAUCCAGGUGAAUCUGCGAACUCUGCUGUAUAUCUC [A15G U49C U51A U66C],0.23
8,UAACAGGGGGCCACGGCAGAAGCGUUCACGUCGCAGCCCCUGUCAGAUUCUGGAGAAUCUGCGAACUCUGCUGUAUAUCUC [A15G U54A U66C],0.41
9,UAACAGGGGGCCACGGCAGAAGCGUUCACGUCGCAGCCCCUGUCAGAUACUGGCAAAUCUGCGAAUUCUACUGUAUAUCUC [A15G U49A U54C G55A G70A],0.11
10,UAACAGGGGGCCACGGCAGAAGCGUUCACGUCGCAGCCCCUGUCAGAUUCAGGUGAUUCUGCGAAUUCUGCCGUAUAUCUC [A15G U51A A57U U72C],0.86
11,UAACAGGGGGCCACGGCAGAAGCGUUCACGUCGCAGCCCCUGUCAGAUUCCGGUGAAUCUGCGUAUUCUGCUGUAUAUCUC [A15G U51C A64U],0.26
12,UAACAGGGGGCCACGGCAGAAGCGUUCACGUCGCAGCCCCUGUCAGAUUCGGGUGAAUCUGCGAAUUCUGCUGUAUACCUC [A15G U51G U78C],0.58
13,UAACAGGGGGCCACGGCAGAAGCGUUCACGUCGCAGCCCCUGUCAGACUCUGGUGAAUCUGCGAACUGUGCUGUAUGUCUC [A15G U48C U66C C68G A77G],0.13
14,UAACAGGGGGCCACGGCAGAAGCGUUCACGUCGCAGCCCCUGUCAGAUUCUGGCGAAUCUGCGAAUUCUGCUGUUUACCUC [A15G U54C A75U U78C],0.76
15,UAACAGGGGGCCACGGCAGAAGCGUUCACGUCGCAGCCCCUGUCAGAUUCUGGCGAAUCUGCGAAUUCCGCUGUAUAUCUC [A15G U54C U69C],0.23
16,UAACAGGGGGCCACGGCAGAAGCGUUCACGUCGCAGCCCCUGUCAGAGUCGGGUGAAUCUGCGAAUUCUGCUGUAUACCUC [A15G U48G U51G U78C],0.24
17,UAACAGGGGGCCACGGCAGAAGCGUUCACGUCGCAGCCCCUGUCAGAUUCUGGCGAAUCUGCGAAUUCUGCUGCAUAUCUC [A15G U54C U74C],1.23
